Laboratory results: the supplement of paper PMC10670038
Where a name gives a salt, the structure may show the parent alone. ± gives the standard deviation of the averaged measurements. The full ranking holds about 2,000 compounds; the median of “relative cell viability vs DMSO, compound alone” is about 1.1, and the lowest 2% start at about 0.29. The list shows a part of the results.

system: TE10; test: relative cell viability vs DMSO, compound alone (fraction); TE10 is an esophageal squamous carcinoma line; higher = less cytotoxic; details: 2 µM; 48 h
Protocol: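 TE10 ESCC cells (1,000/well, 384-well plates) were treated with Selleck bioactive library compounds at 2 uM alone for 48 h. Viability was read by CellTiter-Glo and expressed relative to DMSO wells. Two technical replicates (A, B).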

Compound	relative cell viability
O=C(O)c1ccccc1C(=O)Nc1ccc(-c2ccccc2)cc1 [Kartogenin]	0.914 ± 0.16
CC1=C(CC(=O)O)c2cc(F)ccc2/C1=C\c1ccc([S+](C)[O-])cc1 (centres undefined) [Sulindac]	0.754 ± 0.044
C=CC(=O)Nc1ccc2ncnc(Nc3ccc(OCc4cccc(F)c4)c(Cl)c3)c2c1	0.787 ± 0.047
CCOC(=O)[C@H](CCc1ccccc1)N[C@@H](C)C(=O)N1CCC[C@H]1C(=O)O [Enalapril Maleate]	0.946 ± 0.085
CNC(=O)[C@H](Cc1ccccc1)NC(=O)[C@H](CC(C)C)[C@H](CSc1cccs1)C(=O)NO [Batimastat (BB-94)]	0.884 ± 0.076
CC[C@@H]1/C=C(\C)C[C@H](C)C[C@H](OC)[C@H]2O[C@@](O)(C(=O)C(=O)N3CCCC[C@H]3C(=O)O[C@H](/C(C)=C/[C@@H]3CC[C@H](Cl)[C@H](OC)C3)[C@H](C)[C@@H](O)CC1=O)[C@H](C)C[C@@H]2OC [Pimecrolimus]	1.07 ± 0.022
Cc1cc(Nc2nc(N[C@@H](C)c3ncc(F)cn3)ncc2Cl)[nH]n1	0.871 ± 0.069
COC[C@H](NC(=O)c1cnc(C)s1)C(=O)N[C@@H](COC)C(=O)N[C@@H](Cc1ccccc1)C(=O)[C@@]1(C)CO1 [Oprozomib (ONX 0912)]	0.0586 ± 0.0043
CC(CCC(=O)NCCS(=O)(=O)O)C1CCC2C3C(O)CC4CC(O)CCC4(C)C3CCC12C (centres undefined) [Sodium Tauroursodeoxycholate (TUDC)]	1.07 ± 0.044
CCN(c1cc(-c2ccc(CN3CCOCC3)cc2)cc(C(=O)NCc2c(C)cc(C)[nH]c2=O)c1C)C1CCOCC1	1.117 ± 0.011
Cn1c([N+](=O)[O-])cnc1COC(N)=O [Ronidazole]	1.12 ± 0.089
O=C(O)CC1CC(c2ccccc2)=NO1 (centres undefined)	1.08 ± 0.077
COc1ccc(C[C@@H]2c3cc(OC)c(OC)cc3CC[N@+]2(C)CCC(=O)OCCCCCOC(=O)CC[N@@+]2(C)CCc3cc(OC)c(OC)cc3[C@H]2Cc2ccc(OC)c(OC)c2)cc1OC [Cisatracurium Besylate]	1.06 ± 0.044
CCOC(=O)c1c(C)n(C)c2ccc(O)cc12 [Mecarbinate]	0.967 ± 0.011
Fc1cc(-c2cccc3ncc(-c4cnn(C5CCNCC5)c4)nc23)cc(F)c1CN1CCOCC1	0.975 ± 0.054
CC(N)C12CC3CC(CC(C3)C1)C2 (centres undefined) [Rimantadine]	1.03 ± 0.045
CN(CCOc1ccc(CC2SC(=O)NC2=O)cc1)c1ccccn1 (centres undefined) [Rosiglitazone HCl]	1.13 ± 0.016
CN(CCOc1ccc(CC2SC(=O)NC2=O)cc1)c1ccccn1 (centres undefined) [Rosiglitazone maleate]	1.16 ± 0.021
CN(CCOc1ccc(CC2SC(=O)NC2=O)cc1)c1ccccn1 (centres undefined) [Rosiglitazone]	0.968 ± 0.043
